This note sets out measurements from PubChem BioAssay AID1346428 (National Center for Advancing Translational Sciences (NCATS), 2018).

Values joined by “and” are separate entries in the source; they are usually repeats but may differ in a detail not shown here. Equal values may be shown once. Among all 48,000 compounds or so, about 1,200 (2.5%) were called active. About 2% were inconclusive and are not listed.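 How the source made its calls: active means activation of at least 60% and not above a set upper limit (about 1 call in 100 departs from these limits); inconclusive means activation of 40% to 60%, or above that upper limit; inactive means activation under 40%.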 The list shows a part of the results.

The test has as its target Probable G-protein coupled receptor 32 (Homo sapiens) (UniProt O75388). Put plainly: qHTS for Agonists of Human Resolvin D1 Receptor DRV1. The note with it: CHO-K1 GPR32 beta-arrestin PathHunter luminescence, 90 min; at 76.9 µM; hits give high values; zero percent set by DMSO-only wells. The gist of the method: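 Using DMSO wells as EC0, agonist-induced signal was taken as chemiluminescence from beta-Gal reconstituted upon beta-arrestin recruitment to GPR32 in CHO-K1 cells after 90 min compound treatment.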
Sequence of UniProt O75388 (O75388 whole entry, looked up): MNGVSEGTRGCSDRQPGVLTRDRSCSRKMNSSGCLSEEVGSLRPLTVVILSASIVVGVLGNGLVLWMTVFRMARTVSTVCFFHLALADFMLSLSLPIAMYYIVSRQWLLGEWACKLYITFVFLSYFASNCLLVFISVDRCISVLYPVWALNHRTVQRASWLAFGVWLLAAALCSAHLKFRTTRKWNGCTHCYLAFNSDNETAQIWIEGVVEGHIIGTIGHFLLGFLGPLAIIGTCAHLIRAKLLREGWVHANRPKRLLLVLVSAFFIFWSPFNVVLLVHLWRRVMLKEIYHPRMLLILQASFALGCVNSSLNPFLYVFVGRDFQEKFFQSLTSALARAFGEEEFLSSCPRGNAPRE
(In qHTS, concentration-response curves come from the screen itself.)
With `CC(C)c1ccc(NC(=O)c2ccc(NC(=O)CCS(=O)(=O)c3cccs3)cc2)cc1`, the activation was inactive: 8.5%.

Take `Cc1ccc(-n2ncc3c(NCCCc4ccccc4)ncnc32)cc1C`: the activation was inactive: -4.22%.

In the case of `COc1cc(CNC(=O)c2cc3n(n2)CCCN(Cc2ccc(C)cc2)C3=O)cc(OC)c1OC`, the activation is inactive: -4.82%.

For `Cc1c(NC(=O)c2sc3c([N+](=O)[O-])cccc3c2Cl)cccc1-c1nc2ccccc2o1`, the activation was inactive: 10%.

Turning to `Cc1ccc(-c2c3c(=O)n(C)c(=O)n(C)c3c3c(C(F)(F)F)nc4ccccc4n23)cc1`, the activation was inactive: -1.39%.

Consider `CCOC(=O)c1[nH]c(C)c(CCC(=O)Nc2ccc(N(CC)CC)cc2C)c1C`, for which the activation is inactive: -8.31%.

For `CCS(=O)(=O)N1CC(=O)N(c2cccc(C)c2C)C(C)(C(=O)NC2CCCCC2)C1` (centres undefined), the activation is inactive: 6.99%.

Regarding `CCc1ccc(CNC(=O)CCN2C(=O)COc3ccccc32)cc1`, the activation was inactive: -10.8%.

With `Cc1cc(C)cc(NC(=O)Cn2nnc(C(=O)Nc3cc(C)cc(C)c3)c2N)c1`, the activation is active: 83.6%.

`Cc1nc(-c2ccc(F)cc2)sc1CCNC(=O)c1ccco1`: the activation was inactive: -2.83%.

With `COc1cc(NC(=O)Cn2c(C)cc3ccccc3c2=O)cc(OC)c1OC`, the activation was inactive: 27.3%.

With `COc1cc(OC)cc(C(=O)Nc2c(C(=O)Nc3ccc(F)cc3)oc3ccccc23)c1`, the activation is inactive: 1.9%.

In the case of `CSc1ccc(CCNC(=O)C(C)n2c(C)c3cnn(-c4ccccc4)c(=O)c3c2C)cc1` (centres undefined), the activation is inactive: 13.5%.

Consider `CCOC(=O)c1cc(-c2ccccc2)n(CCCC(=O)Nc2cccc(Cl)c2C)c1C`, for which the activation was inactive: -19.4%.

With `[O-][n+]1cccc(CO)c1`, the activation is inactive: 8.43%.

`COC(=O)c1cc2oc(C)cc2n1CC(=O)Nc1ccc(C)cc1C`: the activation was inactive: -16.4%.

With `CC(=O)Nc1cc(C(=O)NCc2ccc(F)cc2Cl)ccc1Sc1ccc(Cl)cc1`, the activation was inactive: -17.8%.

Consider `O=C(Cn1c(=O)n(Cc2ccccc2)c(=O)c2oc3ccccc3c21)Nc1ccc(Cl)cc1`, for which the activation is inactive: 0.152%.

On to `Cc1ccc(/C=C/c2onc(C)c2S(=O)(=O)N2CCC(C(=O)N3CCOc4ccccc43)CC2)cc1`, for which the activation was inactive: -17.8%.

On to `O=C(CSc1nc2ccsc2c(=O)n1Cc1ccccc1F)NCc1ccccc1`, for which the activation is inactive: -13.6%.

In the case of `COc1ccc(S(=O)(=O)N(C)Cc2nc(-c3cccc(C)c3)no2)cc1`, the activation is inactive: 0.0825%.

As to `CCc1ccc(NC(=O)CN2C(=O)C(c3ccccc3)=NC23CCCCCC3)cc1`, the activation was inactive: -24.6%.

As for `CCc1ccc(NC(=O)N(Cc2ccc(C)cc2)Cc2cccn2-c2nnc(N3CCCC3=O)s2)cc1`, the activation was inactive: -20.5%.

In the case of `CCOC(=O)c1ccc(NC(=O)c2cc(=O)c3cc(CC)ccc3o2)cc1`, the activation is inactive: -12.7%.

`Cc1ccc2nc(CSc3nnc(NC(=O)COc4ccccc4)s3)cc(=O)n2c1`: the activation was inactive: -10.5%.

Take `CCOC(=O)c1c(C)c(-c2ccccc2)n(CC(=O)NCCc2ccc(C)cc2)c1C`: the activation is inactive: 6.54%.

Regarding `CCCCc1ccc(NC(=O)COc2cccc3c(=O)n(C)ccc23)cc1`, the activation was active: 60.2%.

`Cc1ccc(NC(=O)C2CCCN(c3nnc(-n4c(C)ccc4C)s3)C2)cc1Cl` (centres undefined): the activation is inactive: -26.4%.

`COc1cccc(CNC(=O)C(NS(=O)(=O)c2ccc3nc(C)sc3c2)C(C)C)c1` (centres undefined): the activation was inactive: 14%.

On to `COc1ccc(-c2cc(C(F)(F)F)nc(SCC(=O)NCCc3ccc(OC)c(OC)c3)n2)cc1`, for which the activation was inactive: -6.23%.

As for `Cc1ccc(NC(=O)N2CCC(CN3CCC(C)CC3)CC2)cc1F`, the activation is inactive: 9.13%.

With `Cc1cccc(NC(=O)CSc2nnc(C)c(=O)[nH]2)c1`, the activation was inactive: -7.97%.

For `Cc1ccc(C(CC(=O)Nc2cc(C)cc(C)c2)N2Cc3ccccc3C2=O)cc1` (centres undefined), the activation was inactive: 14.8%.

As for `CCN(CC)c1ccc(-n2nc3cc(C)c(NC(=O)c4ccccc4F)cc3n2)cc1`, the activation is inactive: 8.15%.

With `Cc1ccccc1CN1c2ccccc2-c2nc(SCC(=O)NCCc3ccccc3)ncc2S1(=O)=O`, the activation is inactive: -3.61%.

Regarding `CCS(=O)(=O)NCC(c1ccco1)N1CCN(c2ccc(OC)cc2)CC1` (centres undefined), the activation was inactive: -16.1%.

Take `Cc1ccc(C(=O)Nc2nc3n(n2)C(c2ccccc2)C=C(c2ccccc2)N3)cc1` (centres undefined): the activation is inactive: 5.56%.

In the case of `Cc1ccc(NC(=O)Cn2c(C)cc(C)c(C#N)c2=O)cc1F`, the activation is inactive: -7.19%.

With `Cc1cc(C)c(/C=C/c2onc(C)c2S(=O)(=O)N2CCC(C(=O)N3CCN(c4ccc(Cl)cc4)CC3)CC2)c(C)c1`, the activation was inactive: -2.82%.

As to `Cc1ccc(NC(=O)CCNS(=O)(=O)c2cccc3nsnc23)cc1`, the activation is inactive: -24.8%.

Consider `COc1ccc(-c2nc3ccccc3s2)cc1NC(=O)c1cc2ccccc2o1`, for which the activation is inactive: -0.0462%.

For the molecule `CC1CCc2onc(C(=O)N3CCN(c4cccc(C(F)(F)F)c4)CC3)c2C1` (centres undefined), the activation was inactive: -20.6%.

`NC(=O)OCC(COC(N)=O)c1ccccc1`: the activation is inactive: -11.8% and inactive: 12.3%.

With `CN(CC(=O)Nc1ccc(F)cc1F)S(=O)(=O)c1ccc(C(=O)N2CCOCC2)s1`, the activation was inactive: -4.98%.

For `CCOc1ccc(-c2nonc2NC(=O)c2ccc(C)cc2)cc1OCC`, the activation was inactive: -4.54%.

Take `Cc1ccnc(NS(=O)(=O)c2ccc(N)cc2)n1`: the activation is inactive: 11.2%.

In the case of `CN1CCN(C(c2cccc(Br)c2)c2sc3nc(-c4ccco4)nn3c2O)CC1` (centres undefined), the activation was inactive: -6.75%.

In the case of `CCC(=O)N1CCc2cc(Br)cc(S(=O)(=O)CCC(=O)NCCc3ccccc3Cl)c21`, the activation was inactive: -14.1%.

As to `CCOc1ccc(-c2nc(SCC(=O)Nc3ccc4c(c3)OCCO4)c(-c3ccc(F)cc3)[nH]2)cc1`, the activation is inactive: -12.5%.

`O=C(Cc1csc2ccccc12)NCc1ccccc1F`: the activation was inactive: -13.1%.

Take `COc1ccc(NC(=O)c2noc3c2CSc2ccccc2-3)cc1Cl`: the activation was inactive: -21.2%.

In the case of `Clc1ccc2nc(-c3ccc(Br)o3)c(Nc3ccc4c(c3)OCCO4)n2c1`, the activation is inactive: 12.9%.

For the molecule `COc1cccc(OC)c1C(=O)Nc1cccc(-c2nc3cc(C)cc(C)c3o2)c1`, the activation was inactive: 0.847%.

Consider `CC(=O)N1CCCc2cc(S(=O)(=O)N3CCN(c4ccc(F)cc4)CC3)ccc21`, for which the activation was inactive: -9.25%.
